This is one part of the list. The list includes weakly bound sequences.
The sequences below were run against T1, MBP-FoxP3dN (UniProt Q99JB6) (assay: PD-seq (MBP pull-down with sequencing)). Settings: 20 mM Tris-HCl pH 7.5, 100 mM NaCl, 1.5 mM MgCl2, 0.4 uM protein, 0.1 uM dsDNA library, 30 min, room temperature, amylose pull-down; high values mean tight binding; double strand, one strand shown.
T1 sequence: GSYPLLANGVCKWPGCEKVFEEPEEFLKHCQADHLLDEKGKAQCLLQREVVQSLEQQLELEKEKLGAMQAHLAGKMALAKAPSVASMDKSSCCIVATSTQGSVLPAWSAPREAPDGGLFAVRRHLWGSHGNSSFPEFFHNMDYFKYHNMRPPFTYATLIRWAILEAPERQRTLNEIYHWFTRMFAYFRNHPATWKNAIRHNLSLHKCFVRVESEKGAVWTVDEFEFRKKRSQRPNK

Row | Sequence | binding signal (RPM ratio (pull-down/input))
1 | GATGATTGTTCTCCCAGCTGATGAATTTGTGCCTTCGAGTAAACAAATTTTCCTAATCTTTCTGTTCAAGCGCCATCTAC | 4.02
2 | GATGATTGTTCTCCCAGCTGATGAATTATCTACCTCGAGTAAACAAATTTTCCTAATCTTTCTGTTCAAGCGCCATCTAC | 0.317
3 | GATGATTGTTCTCCCAGCTGATGAATTGTTGTCCTCGAGTAAACAAATTTTCCTAATCTTTCTGTTCAAGCGCCATCTAC | 5.63
4 | GATGATTGTTCTCCCAGCTGATGAATTACCCGATTCGAGTAAACAAATTTTCCTAATCTTTCTGTTCAAGCGCCATCTAC | 0.248
5 | GATGATTGTTCTCCCAGCTGATGAATTGCCCCTTTCGAGTAAACAAATTTTCCTAATCTTTCTGTTCAAGCGCCATCTAC | 0.522
6 | GATGATTGTTCTCCCAGCTGATGAATTCCCGTGATCGAGTAAACAAATTTTCCTAATCTTTCTGTTCAAGCGCCATCTAC | 0.351
7 | GATGATTGTTCTCCCAGCTGATGAATTTTTACAATCGAGTAAACAAATTTTCCTAATCTTTCTGTTCAAGCGCCATCTAC | 0.466
8 | GATGATTGTTCTCCCAGCTGATGAATTATCTGCATCGAGTAAACAAATTTTCCTAATCTTTCTGTTCAAGCGCCATCTAC | 1.07
9 | GATGATTGTTCTCCCAGCTGATGAATTGCCGTTGTCGAGTAAACAAATTTTCCTAATCTTTCTGTTCAAGCGCCATCTAC | 1.03
10 | GATGATTGTTCTCCCAGCTGATGAATTGGGATGGTCGAGTAAACAAATTTTCCTAATCTTTCTGTTCAAGCGCCATCTAC | 0.427
11 | GATGATTGTTCTCCCAGCTGATGAATTAGGGCTTTCGAGTAAACAAATTTTCCTAATCTTTCTGTTCAAGCGCCATCTAC | 0.869
12 | GATGATTGTTCTCCCAGCTGATGAATTGCGCTCATCGAGTAAACAAATTTTCCTAATCTTTCTGTTCAAGCGCCATCTAC | 1.24
13 | GATGATTGTTCTCCCAGCTGATGAATTTCATGTTTCGAGTAAACAAATTTTCCTAATCTTTCTGTTCAAGCGCCATCTAC | 0.918
14 | GATGATTGTTCTCCCAGCTGATGAATTACACCCCTCGAGTAAACAAATTTTCCTAATCTTTCTGTTCAAGCGCCATCTAC | 0.481
15 | GATGATTGTTCTCCCAGCTGATGAATTAAAGTTCTCGAGTAAACAAATTTTCCTAATCTTTCTGTTCAAGCGCCATCTAC | 0.515
16 | GATGATTGTTCTCCCAGCTGATGAATTAGTTTAGTCGAGTAAACAAATTTTCCTAATCTTTCTGTTCAAGCGCCATCTAC | 3.51

Row | Sequence | binding signal (RPM ratio (pull-down/input))
17 | GATGATTGTTCTCCCAGCTGATGAATTCGTACAATCGAGTAAACAAATTTTCCTAATCTTTCTGTTCAAGCGCCATCTAC | 0.39
18 | GATGATTGTTCTCCCAGCTGATGAATTCGCAGCTTCGAGTAAACAAATTTTCCTAATCTTTCTGTTCAAGCGCCATCTAC | 0.653
19 | GATGATTGTTCTCCCAGCTGATGAATTCGGGGAGTCGAGTAAACAAATTTTCCTAATCTTTCTGTTCAAGCGCCATCTAC | 0.343
20 | GATGATTGTTCTCCCAGCTGATGAATTCGGGTTATCGAGTAAACAAATTTTCCTAATCTTTCTGTTCAAGCGCCATCTAC | 0.667
21 | GATGATTGTTCTCCCAGCTGATGAATTCTGGTCTTCGAGTAAACAAATTTTCCTAATCTTTCTGTTCAAGCGCCATCTAC | 0.442
22 | GATGATTGTTCTCCCAGCTGATGAATTTGTCAAATCGAGTAAACAAATTTTCCTAATCTTTCTGTTCAAGCGCCATCTAC | 0.511
23 | GATGATTGTTCTCCCAGCTGATGAATTAGTACTGTCGAGTAAACAAATTTTCCTAATCTTTCTGTTCAAGCGCCATCTAC | 0.836
24 | GATGATTGTTCTCCCAGCTGATGAATTCGTGAATTCGAGTAAACAAATTTTCCTAATCTTTCTGTTCAAGCGCCATCTAC | 0.701
25 | GATGATTGTTCTCCCAGCTGATGAATTCAATCTGTCGAGTAAACAAATTTTCCTAATCTTTCTGTTCAAGCGCCATCTAC | 0.338
26 | GATGATTGTTCTCCCAGCTGATGAATTGCGTCATTCGAGTAAACAAATTTTCCTAATCTTTCTGTTCAAGCGCCATCTAC | 2.09
27 | GATGATTGTTCTCCCAGCTGATGAATTGCTATACTCGAGTAAACAAATTTTCCTAATCTTTCTGTTCAAGCGCCATCTAC | 0.737
28 | GATGATTGTTCTCCCAGCTGATGAATTTTTCACCTCGAGTAAACAAATTTTCCTAATCTTTCTGTTCAAGCGCCATCTAC | 0.233
29 | GATGATTGTTCTCCCAGCTGATGAATTCAACACATCGAGTAAACAAATTTTCCTAATCTTTCTGTTCAAGCGCCATCTAC | 0.764
30 | GATGATTGTTCTCCCAGCTGATGAATTCGTAGAATCGAGTAAACAAATTTTCCTAATCTTTCTGTTCAAGCGCCATCTAC | 0.245
31 | GATGATTGTTCTCCCAGCTGATGAATTCCCAGGCTCGAGTAAACAAATTTTCCTAATCTTTCTGTTCAAGCGCCATCTAC | 0.229
